According to PubChem BioAssay AID1745853 (National Center for Advancing Translational Sciences (NCATS), 2022):
The other results are listed elsewhere or left out. Shown are side measurements of this screen, not its main read-out; they come without a call.

How the values were obtained:
Assay in all cases: Primary Screen for Target Class Profiling of Small Molecule Inhibitors of Methyltransferases
[1] = target: Glycine N-methyltransferase (Homo sapiens) (UniProt Q14749); details: purified enzyme, MTase-Glo SAH luminescence; measured here: GNMT inhibition; at 40 µM; stronger effect = lower value
Method in brief: (§1)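 Each enzyme was reacted with SAM and its substrate, with compounds tested once at 40 uM; SAH formed was read by MTase-Glo luminescence.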

[2] = target: Guanidinoacetate N-methyltransferase (Homo sapiens) (UniProt Q14353); details: purified enzyme, MTase-Glo SAH luminescence; measured here: GAMT inhibition; at 40 µM; stronger effect = lower value
Method in brief: as §1

[3] = target: Histamine N-methyltransferase (Homo sapiens) (UniProt P50135); details: purified enzyme, MTase-Glo SAH luminescence; measured here: HNMT inhibition; at 40 µM; stronger effect = lower value
Method in brief: as §1

[4] = target: Nicotinamide N-methyltransferase (Homo sapiens) (UniProt P40261); details: purified enzyme, MTase-Glo SAH luminescence; measured here: NNMT inhibition; at 40 µM; stronger effect = lower value
Method in brief: as §1

[5] = target: Phenylethanolamine N-methyltransferase (Homo sapiens) (UniProt P11086); details: purified enzyme, MTase-Glo SAH luminescence; measured here: PNMT inhibition; at 40 µM; stronger effect = lower value
Method in brief: as §1
On the % scale 0 is the no-effect control and ±100 the full control effect.

Compound | activity change, negative = inhibition [1] [%] | activity change, negative = inhibition [2] [%] | activity change, negative = inhibition [3] [%] | activity change, negative = inhibition [4] [%] | activity change, negative = inhibition [5] [%]
CSc1ccc(CNC(=O)Cn2ccc3cc(S(=O)(=O)N4CCCCC4)ccc32)cc1 | 1.47 | 0.309 | 3.16 | -2.98 | 0.737
Cc1ccc(NC(=O)c2ncn3c2C(=O)N(C2CC2)C(C)(C(=O)NCc2ccc(F)cc2)C3)c(C)c1 (stereo not given) | 1.2 | 0.795 | 12.5 | 8.24 | 8.39
CCCn1c(=O)c2ccccc2n2c(=O)n(Cc3ccccc3C)nc12 | -3.79 | 6.11 | 4.24 | -7.25 | 3.08
CC1(C(=O)NC2CCCCCCC2)Cn2c(cc3occc32)C(=O)N1CCCc1ccccc1 (stereo not given) | -10 | -0.081 | -2.73 | -4.78 | -3.79
CCc1cc2c(-c3ccccc3)cc(=O)oc2cc1OCc1cc(C(=O)OC)oc1C | -3.74 | 0 | 3.55 | -1.27 | -2.69
CCCN1C(=O)c2c(C(=O)NCCc3ccc(C)cc3)ncn2CC1(C)C(=O)NCc1ccc(OC)cc1 (stereo not given) | 0.385 | 0 | -2.77 | 1.81 | 1.32
O=C(NC1CCCC1)N1CCC(Cc2nncn2CC2CC2)CC1 | -7.48 | -12.2 | -6.43 | -16.1 | -14.5
O=C(C1CCOCC1)N1CCC(c2nc(C3CCOCC3)no2)CC1 | -3.38 | 0.988 | 3.37 | 3.75 | 5.41
CC1(C)S[C@@H]2[C@H](NC(=O)[C@H](N)c3ccc(O)cc3)C(=O)N2[C@H]1C(=O)O | 3.4 |  | 5.2 |  | 
C=CCC1=C[C@]2(OC)[C@H](C)[C@@H](c3ccc(O)c(OC)c3)O[C@]2(OC)CC1=O | 0.298 | 6.74 | 5.32 | -5.54 | 7.57
C#CCNC(=O)C1CCc2nnc(CNC(=O)c3ccc(Cl)cc3Cl)n21 (stereo not given) | -3.91 | -4.75 | -2.19 | -3.7 | -0.377
c1ccc(-c2nc(CC3CCCNC3)no2)nc1 (stereo not given) | -4.11 | -9.26 | -6.11 | -4.87 | -4.33
CCCOc1ccc(CN2C(=O)c3cc4oc(C)cc4n3CC2(C)C(=O)NC2CCCCCC2)cc1 (stereo not given) | 4.35 | 1.74 | 8.79 | 5.69 | 1.9
O=C(Cn1ccc2cc(S(=O)(=O)N3CCCCC3)ccc21)NC1CCN(Cc2ccccc2)CC1 | 6.22 | 1.71 | -23 | 7.05 | 4.37
Cn1cnc2c(NCc3ccccc3)nc(NCCO)nc21 | 4.31 | 9.61 | 11 | -9.11 | -0.745
Cc1nc(C(C)C)ncc1C(=O)N1CCC2(CCCN(C)C2=O)C1 (stereo not given) | 0.319 | -0.377 | 2.11 | 1.01 | 0.72
Cc1cnc(C(=O)N(C)C2CCc3nn(CC4CC4)c(=O)n3CC2)cn1 (stereo not given) | 3.18 | 1.74 | 0.216 | 6.29 | 0.921
Cc1ccc(C(=O)Cn2nc3n(C(C)C)c(=O)c4ccc(C(=O)NC5CCCCC5)cc4n3c2=O)cc1 | 5.55 | 1.25 | 8.18 | 5.27 | 7.13
CN(CC(=O)N1CCC(Cc2ccccc2)CC1)S(=O)(=O)c1ccc2[nH]c3c(c2c1)CCCC3 | -9 | 0.571 | -4.78 | -10.4 | -2.02
CCCn1c(=O)c2ccc(C(=O)NC(C)C)cc2n2c(=O)n(CC(=O)Nc3cccc(Cl)c3)nc12 | 5.21 | 0 | 3.1 | 2.94 | 3.98

Compound | activity change, negative = inhibition [1] [%] | activity change, negative = inhibition [2] [%] | activity change, negative = inhibition [3] [%] | activity change, negative = inhibition [4] [%] | activity change, negative = inhibition [5] [%]
O=C(c1ccc(C2CCCNC2)cc1)N1CCN(c2ccncc2)CC1 (stereo not given) | -3.63 | -5.62 | -83.9 | -8.23 | -9.61
CC1CC(C)CN(S(=O)(=O)c2ccc3c(c2)oc(=O)n3CC(=O)NCc2ccccc2)C1 (stereo not given) | -7.87 | 3.29 | 0.546 | 0.156 | -5.95
NC(=O)c1ccc(NC(=O)Cn2nc3c(cc2=O)CCCCC3)cc1 | -11.7 | -7.31 | -4.75 | -13.2 | -1
Cc1nc(Nc2cnn(C3CCNCC3)c2)nc2c1N(C)C(=O)c1cc3ccccc3cc1N2C | -10.5 | -4.23 | -43.7 | -31.4 | -7.14
CCOC(=O)c1cc2n(n1)CC(C)(C(=O)NCCOC)N(c1ccc(F)cc1)C2=O (stereo not given) | 8.43 | 2.04 | 10.2 | 8.97 | 5.76
O=C(CCn1ccc2cc(S(=O)(=O)N3CCCCC3)ccc21)N1CCCC1 | -1.54 | -2.23 | -2.82 | -2.67 | -3.57
Cc1ccccc1CCNC(=O)Cn1ccc2cc(S(=O)(=O)N3CCC(C)CC3)ccc21 | 6.41 | 1.16 | 1.47 | 2 | -2.26
CCOC(=O)c1cc2n(n1)CC(C)(C(=O)NCc1ccc(F)cc1)N(Cc1ccc(SC)cc1)C2=O (stereo not given) | -0.066 | 5.18 | 5.24 | -4.87 | 0.099
CCOC(=O)C(Cc1c[nH]c2ccccc12)NC(=O)c1ccco1 (stereo not given) | -2.14 | 3.75 | 4.81 | -2.31 | -0.457
CCOC(=O)C1CCN(C(=O)c2cn3ccnc(-c4ccc(C)cc4)c3n2)CC1 | -8.63 | -6.7 | -1.41 | -15.2 | -1.03
O=C1NCCCCCN(C(=O)C2CCC2)[C@H]2CCCC[C@@H]12 | -2.37 | -2.7 | 0.712 | -1.97 | 11.9
O=C(Cc1cc2c(cc1Cl)OCCO2)N[C@@H]1COCC[C@@H]1OCC1CC1 | -4.39 | -5.12 | -1.68 | -7.35 | 3.03
COC1C(CO)OC(n2cnc3c(=O)[nH]cnc32)C1O (stereo not given) | -2.25 | -0.143 | 11.1 | -13.4 | -13.1
Cc1cc2c(cc1C(=O)N[C@H](c1ccccn1)C1CC(O)C1)OCCO2 (stereo not given in full) | -2.49 | -5.43 | -5.17 | -5.92 | -7.23
CCc1cc(S(=O)(=O)O)c2cc(C(C)C)cccc1-2 | -10.3 | -6.91 | 6.04 | -17.4 | -0.173
CC1CCCCC1NC(=O)C1(C)Cn2c(cc3sccc32)C(=O)N1Cc1ccccc1Cl (stereo not given) | 2.71 | 1.16 | 7.33 | -3.52 | 0.449
NC(=O)CN1CCC(C(=O)N2CCCC(CO)(CC3CC3)C2)CC1 (stereo not given) | -1.7 | 1.27 | 1.52 | 0.673 | -6.85
C=C1CCC2C(C)(C)CC(O)CC2(C)C1CCC(C)CCOC(=O)CCC(=O)O (stereo not given) | -10.8 | 0.514 | 11.5 | -22.9 | -11.7
CCCC1c2ccc(C)n2CCN1C(=O)Nc1ccc(C)cc1 (stereo not given) | 1.54 | 0 | -1.48 | 1.52 | -0.268
Oc1cccc(-c2nc(N3CCOCC3)c3sccc3n2)c1 |  | -7.22 |  | -28.2 | -14
